Reference: PubChem BioAssay AID463173 (ICCB-Longwood Screening Facility, Harvard Medical School, 2010)
About 4,300 (8.3%) of roughly 52,000 compounds were called active. Cut-off read from the data, not from the text of the source: active = survival mostly below about 52% (no sharp cut-off); inactive = mostly above about 56%. The list shows a part of the results.

Each molecule was assayed on DeltatarO mutant (assay: growth inhibition of S. aureus wild type versus tarO mutant, primary screen, teichoic acid synthesis inhibitors, RN4220, OD600 (AID 463173)). Settings: OD600, 18 h, stronger effect = lower value, screened at 18.75 µg/mL (by protocol).

| SMILES | survival |
| --- | --- |
| Cc1ccnc(SCC(=O)Nc2ccccc2)n1 | inactive: 95% |
| COC(=O)c1ccccc1NC(=O)Cn1c(=O)n(-c2ccc(C)cc2)c(=O)c2ccccc21 | inactive: 83% |
| COc1cc(Nc2nc3c(S(=O)(=O)c4cccc(Cl)c4)nnn3c3ccsc23)cc(OC)c1 | inactive: 112% |
| CCOc1ccc(NC(=O)Cn2nc(CC)n3c(cc4sccc43)c2=O)cc1 | inactive: 92% |
| Cc1ccc2c(c1)c1c(c(=O)n(-c3cccc(Cl)c3)c(=O)n1CC(N)=O)n2C | inactive: 74% |
| COc1ccc(CNCC(O)c2nnn(C)n2)cc1OC (configuration not stated) | inactive: 91% |
| Cc1ccc(C2N3CC4(C)CN2CC(c2ccccc2)(C3)C4=O)cc1 (configuration not stated) | inactive: 93% |
| CCn1cc(/C=C(\NC(=O)c2ccccc2Cl)C(=O)NCCCn2ccnc2)c2ccccc21 | inactive: 125% |
| CCOc1ccc(C(=O)Nc2ccc(C(=O)OCc3cc(=O)n4c(C)csc4n3)cc2)cc1 | inactive: 88% |
| Cc1ccc(CNC(=O)c2ccc(N3Cc4ccccc4Oc4ncccc43)s2)cc1 | inactive: 81% |
| CCOCCCNC(=O)C(c1ccc(Cl)cc1)N(Cc1ccc2c(c1)OCO2)C(=O)c1ccc(NC(C)=O)cc1 (configuration not stated) | inactive: 142% |
| CCC(=O)Nc1ccc(-c2nc3ncccc3o2)cc1C | inactive: 73% |
| Oc1c(C(c2ccc(Cl)cc2Cl)N2CCN(Cc3ccccc3)CC2)sc2nc(-c3ccco3)nn12 (configuration not stated) | inactive: 99% |
| Cc1ccccc1-n1nc(C)c2c1CC(C)(C)CC2=O | inactive: 81% |
| CCOc1ccc2nc(Cl)c(CN(Cc3ccco3)C(=O)c3ccco3)cc2c1 | inactive: 108% |
| Cc1ccc(CNC(=O)Cn2ccn(-c3ccc(F)c(F)c3)c(=O)c2=O)cc1 | inactive: 82% |
| CCCn1c(=N)c(C(=O)NCc2ccco2)cc2c(=O)n3cc(C)ccc3nc21 | inactive: 54% |
| CCC(Sc1nc2ccncc2[nH]1)C(=O)Nc1cc(C)ccc1C (configuration not stated) | inactive: 132% |
| OC(c1ccccc1)c1nc2ccccc2n1Cc1c(F)cccc1Cl (configuration not stated) | inactive: 74% |
| CC1(C)CC(N=Cc2c(O)[nH]c(=O)[nH]c2=O)CC(C)(C)N1 | inactive: 85% |
| Cc1oc2ncnc(N3CCOCC3)c2c1C(=O)Nc1ccc(Br)cc1F | inactive: 135% |
| CCOc1ccc(-c2cc3c(=O)n(CC(=O)NCc4ccccc4)ccn3n2)cc1 | inactive: 83% |
| Fc1ccc(-n2nc(-c3ccccc3)c3cnc4ccccc4c32)cc1Cl | inactive: 129% |

| SMILES | survival |
| --- | --- |
| Cc1ccc(Cl)cc1NC(=O)c1cc(S(=O)(=O)N2CCOCC2)cn1C | inactive: 79% |
| COc1ccccc1CNc1ncnc2c1nc1n2CCCC1 | inactive: 80% |
| O=C(O)c1ccc2c(c1)N(Cc1ccc(F)cc1)C(=O)c1ccccc1S2=O (configuration not stated) | inactive: 89% |
| Cc1cc(NC(=O)c2cc(-c3ccc(F)cc3)on2)nn1Cc1ccc(Cl)cc1 | inactive: 57% |
| COc1ccccc1CNS(=O)(=O)c1c(C)nc2sc(C)cn2c1=O | inactive: 70% |
| O=C(NCCc1ccccc1)c1ccc2c(c1)CCN2S(=O)(=O)c1ccc(Cl)cc1 | inactive: 105% |
| Cc1ccc2c(CC(=O)Nc3ccc(S(=O)(=O)N4CCCC(C)C4)cc3)coc2c1 (configuration not stated) | inactive: 67% |
| CCCCN(C)C(=O)C1CCC(Cn2c(=O)[nH]c3ccsc3c2=O)CC1 (configuration not stated) | active: 0% |
| O=C(Cn1c(=O)c2cccn2c2ccc(F)cc21)Nc1cccc(F)c1 | inactive: 64% |
| COC(=O)c1cc(NC(=O)Cn2ncc3c([nH]c4ccccc43)c2=O)cc(C(=O)OC)c1 | inactive: 66% |
| Cc1ccccc1OCC(=O)Nc1ccccc1C(=O)OCc1cc(=O)n2nc(C3CC3)sc2n1 | inactive: 92% |
| Cc1cccc(NC(=O)c2oc3ccccc3c2NC(=O)Cc2coc3cc(C)cc(C)c23)c1 | inactive: 87% |
| Cc1cccc(-c2nc3cc(NC(=O)COc4ccccc4F)ccc3o2)c1 | inactive: 103% |
| Cc1ccc(C(=O)c2cn(Cc3ccccc3)c3ccccc3c2=O)cc1 | inactive: 75% |
| O=C(CN1CCC(NC(=O)Nc2ccccc2-c2ccccc2)CC1)NCc1ccco1 | inactive: 78% |
| Cc1cc(N2CCN(c3ccc(F)cc3)CC2)n2cnnc2n1 | inactive: 79% |
| COc1ccc(NC(=O)Cn2ccn(-c3ccc(C)c(C)c3)c(=O)c2=O)cc1Cl | inactive: 72% |
| Cc1ccc(Oc2ccc(C#N)c(C#N)c2)c(-n2nc3ccccc3n2)c1 | inactive: 102% |
| Cc1ccc(-c2c3c(=O)n(C)c(=O)n(C)c3c3c(C)nc4ccccc4n23)cc1 | inactive: 81% |
| Cn1cnnc1SCC(=O)c1ccccc1 | inactive: 71% |
| COc1ccc(Cl)cc1NC(=O)CSc1nc(=O)[nH]c2c1CCC2 | inactive: 94% |
| CN(C)Cc1ccc(C(=O)O)o1 | inactive: 70% |
| O=C(CSc1nc(=O)n(Cc2ccccn2)c2c1CCC2)Nc1cccc(Cl)c1 | inactive: 94% |

| SMILES | survival |
| --- | --- |
| COCCNC(=O)CSc1nc(-c2ccc(C)cc2)[nH]c1-c1ccc(OC)cc1 | inactive: 84% |
| CC(C)CCNC(=O)C1CCC(CNS(=O)(=O)c2cccc3nsnc23)CC1 (configuration not stated) | inactive: 127% |
| CCc1ccc(NC(=O)CN2C(C(=O)OC)=C(c3ccccc3)c3ccccc3S2(=O)=O)cc1 | inactive: 55% |
| O=C(O)c1ccccc1SC1CC(=O)N(c2ccc(N3CCCCC3)cc2)C1=O (configuration not stated) | inactive: 90% |
| CCN(CC)S(=O)(=O)c1nnc(NC(=O)c2ccc(C)cc2)s1 | inactive: 63% |
| C=CCN1C(=O)C2C(C(=O)NC)C3C=CC2(O3)C1C(=O)NC1CCCCC1 (configuration not stated) | inactive: 105% |
| O=C(CN(C(=O)c1ccc(Cl)nc1)c1ccc2c(c1)OCCO2)NCc1ccco1 | inactive: 90% |
| CC1CN(C(=O)N2CCC(C(=O)NCc3ccco3)CC2)c2ccccc2O1 (configuration not stated) | inactive: 73% |
| CC1CCN(c2nc3ccccc3nc2C(F)(F)F)CC1 | inactive: 75% |
| CCOc1cccc(C2c3c(oc4ccc(F)cc4c3=O)C(=O)N2c2cc(C)ccn2)c1 (configuration not stated) | inactive: 136% |
| Cc1cccc(CN2C(=O)c3ccccc3Sc3ccc(C(=O)NCCCN4CCOCC4)cc32)c1 | active: 37% |
| O=C(Nc1nc2ccccc2n1CCOc1ccccc1Cl)c1ccccc1 | active: 17% |
| Cc1ccc(Cl)cc1N1CCN(C(=O)CCc2nnc3n(C)c(=O)c4ccccc4n23)CC1 | inactive: 63% |
| Cc1ccc(NC(=O)CSc2nc3n[nH]c(C)c3c(=N)n2-c2ccccc2C)cc1C | inactive: 77% |
| CCN(Cc1ccccc1)C(=O)c1cn(-c2cccc(OC)c2)c(=O)c2ccccc12 | inactive: 68% |
| COc1ccc(CCN2C(=O)CN(C3CCCCCC3)C(=O)C2c2ccc(Cl)cc2)cc1OC (configuration not stated) | inactive: 81% |
| O=C(Cn1ncc2c3ccccc3n(Cc3ccccc3)c2c1=O)NCCCN1CCCCC1 | inactive: 103% |
| COc1ccccc1C1C(C(=O)Nc2ccccc2)=C(C)Nc2nc(-c3ccccc3)nn21 (configuration not stated) | inactive: 52% |
| O=C(C1CC(c2ccccc2O)=NO1)N1CCCC1 (configuration not stated) | inactive: 91% |
| O=c1c2ccccc2nc(SCCN2CCCCC2)n1CC1CCCO1 (configuration not stated) | inactive: 84% |
| CC(=O)N1CCc2cc(S(=O)(=O)NC(Cc3ccccc3)C(=O)Nc3cc(C)cc(C)c3)ccc21 (configuration not stated) | inactive: 69% |
| COc1ccccc1N1CCN(Cc2nc(-c3cc(OC)c(OC)c(OC)c3)no2)CC1 | inactive: 131% |
| CC1CCCCN1CCCNC(=O)Cn1ncc2c3ccccc3n(Cc3ccccc3)c2c1=O (configuration not stated) | inactive: 113% |

| SMILES | survival |
| --- | --- |
| CCOc1ccccc1C(=O)N(C)c1ccccc1 | inactive: 92% |
| O=C(O)c1ccc(CN2CCCCC2)cc1 | inactive: 79% |
| CCCc1cc(=O)[nH]c(SCc2nc(-c3ccccc3)no2)n1 | active: 0% |
| O=S1(=O)c2ccccc2N(Cc2ccc(F)cc2)c2ccccc21 | inactive: 78% |
| O=C(NCCOCCn1c(=O)oc2ccccc21)Nc1ccc(F)cc1F | inactive: 76% |
| C=C(C)c1cccc(C(C)(C)NC(=O)NC2CC(C)(C)NC(C)(C)C2)c1 | inactive: 107% |
| COc1ccc(-c2cc(C(=O)Oc3ccc(C#N)cc3)no2)cc1 | inactive: 101% |
| COc1ccc(CNC(=O)C(CC(C)C)NS(=O)(=O)c2ccc3c(c2)CCN3C(C)=O)cc1 (configuration not stated) | inactive: 92% |
| CCc1cccc(C)c1Nc1c(-c2ccc(N(C)C)cc2)nc2cnccn12 | inactive: 44% |
| O=C(NC12CCC(O)C(SC1)C2O)c1ccccc1 (configuration not stated) | inactive: 109% |
| COc1cccc(CNC(=O)c2ccc3nc(CCc4ccccc4)oc3c2)c1OC | inactive: 73% |
| CCCOc1ccc(CN2C(=O)C(=O)c3cccc(C)c32)cc1 | active: 39% |
| CCOc1ccc(CNCCSc2nnnn2C)cc1 | inactive: 61% |
| COc1cc(Br)cc2cc(S(=O)(=O)c3ccccc3)c(=O)oc12 | inactive: 84% |
| Cc1cccc(NC(=O)CSc2nc3ccc(NC(=O)CCc4ccccc4)cc3s2)c1 | inactive: 80% |
| Cc1ccc(-c2nc(CS(=O)(=O)CC(=O)N3CCN(c4ccccc4)CC3)c(C)o2)cc1 | inactive: 75% |
| Cc1ccc(C2=NNC(C(O)C(O)C(O)C(O)CO)S2)cc1 (configuration not stated) | inactive: 85% |
| CCCSCCCNC(=O)c1sc2nc(C)cc(C)c2c1-n1cccc1 | inactive: 89% |
| COc1cccc(NCc2nnc3n2CCCCC3)c1 | inactive: 94% |
| Cc1ccc(-c2noc(-c3cccnc3N(C)Cc3ccc(Cl)cc3)n2)cc1 | inactive: 70% |
| CCOC(=O)Cn1nnnc1C(C(C)C)N(Cc1ccc(F)cc1)Cc1cc2cc3c(cc2[nH]c1=O)OCO3 (configuration not stated) | inactive: 73% |
| CCOC(=O)c1c(S(=O)(=O)N2CCN(c3cccc(C(F)(F)F)c3)CC2)c(C)n(C)c1C | inactive: 116% |
| CCCn1cc(S(=O)(=O)c2ccc(CC)cc2)c(=O)c2cc(F)c(N3CCN(C)CC3)cc21 | inactive: 79% |
